According to article PMC10726135:
The other results are listed elsewhere or left out. At the low end of the ranking the order means little. Measured with an extract: partners may take part in the binding.

target: T1, HNF4alpha8 (COS-7 nuclear extract) (UniProt P41235-5); experiment: protein-binding microarray; settings: COS-7 nuclear extract on double-stranded Agilent 4x180k PBM; binding buffer, salt, pH and temperature not given; high values mean tight binding; double strand, one strand shown; sequences stand for … in …GCCTAGGGAGATTAGAGTATCGGTCGA
T1 sequence: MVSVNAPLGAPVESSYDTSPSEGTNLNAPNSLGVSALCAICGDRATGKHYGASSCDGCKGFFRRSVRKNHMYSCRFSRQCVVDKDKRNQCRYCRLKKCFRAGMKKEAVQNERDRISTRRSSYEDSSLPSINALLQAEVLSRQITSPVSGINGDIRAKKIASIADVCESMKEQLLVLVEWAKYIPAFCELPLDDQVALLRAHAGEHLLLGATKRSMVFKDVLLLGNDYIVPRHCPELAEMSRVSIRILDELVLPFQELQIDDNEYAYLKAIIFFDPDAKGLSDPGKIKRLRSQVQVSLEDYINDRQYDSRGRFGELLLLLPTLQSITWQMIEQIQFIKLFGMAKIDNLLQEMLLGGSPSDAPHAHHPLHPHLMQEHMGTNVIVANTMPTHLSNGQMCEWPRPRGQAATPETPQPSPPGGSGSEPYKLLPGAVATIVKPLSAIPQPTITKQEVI

| Sequence | binding signal (log2 normalized intensity) |
| --- | --- |
| GAAAGGAAATCATTCCAGAAAGACAGCTGC | -1.32 |
| TTTACAGCACTTCATCCTTATGTAACTGTA | 0.579 |
| CCCCTGGGCTCAAGCGATCCTCCCACTTCA | -1.32 |
| GAGAAAGCAGTGACCATCCCAAAGCTTTTT | -1.37 |
| AAATGCTGATAATGATATGGACAATGAAAT | 0.122 |
| CCCCCACACAGACAAAGACAGAGAGGCTTC | 2.13 |
| GGGCAGCACAGCCTCCCTGTGGGGGAGGTG | -1.22 |
| CTGCCCTTCCCTCCACTATTGTCCTATGAC | 2.45 |
| ACATTTTTATCCTTTTTTGAAGGTTAAAGT | 3 |
| TCAACTAAGTGTTATCTAAATTAGATATGG | 0.865 |
| CGCCCAGCCAGAAAAACAGCATTTTTATCA | -1.2 |
| GGAATTTGCCCTGTGGTCTAGCTTGTTCTC | 2.97 |
| TGTGTAGGAGTACACTCAGCACACCCCACG | 2.21 |
| TCCAGGAATGTGCTAAAAAACAAACAAAAA | -1.33 |
| AATGAACACCTGTTCTAATCAGTAGCTCAC | -1.3 |
| CTCTGCACAGCACAAGATAAGATAGGAATT | -0.983 |
| CTTGAGTAGCTGGGACTACAGGCAGGCACC | -1.51 |
| CCAGGGAAGCTGGTAGCATGGCTCAGTCCA | -1.28 |
| TATTTCCACTGAGGTCAAGATAAGATACGA | 1.14 |
| GCTGTTTTTCCAGTTTTTGTTTGCACCTCA | 1.7 |
| GGGCAATTGGTTTCCGCTAAGTCCAAAGGT | 4.14 |
| TGACCTGTGATAAGAAATGAATGTCACTTT | 1.48 |
| TGGTGTGTGTGTGTGTGTTTTGTGCCTGTT | 2.71 |
| GGAGAAGTTTTATGGCAGGGTCGGAATGTC | 2 |

| Sequence | binding signal (log2 normalized intensity) |
| --- | --- |
| ACTTTGAACCAAGATATGCTAACATCCCTT | -1.33 |
| CCTTATTCTTAACAAGCTGAGCACCAGAAA | -1.36 |
| CCTGCTGAGCCCAATCTAGCAAAAATCCTG | -1.3 |
| CCACTAGAGAGACCGTCCCTGGGTACAACT | 1.33 |
| AGGGGGGAGAAATTAAAGCACATACTTCTT | -1.33 |
| TGCTGAGGAGGGCCTGGGGGACAGCAGGGG | -1.31 |
| TTTTGCCCCTGCAGAGTTTTTTACTGCTCC | 1.2 |
| GGAGCTCATACCTCTTACCAGATAGATGCT | -1.23 |
| GCCTGGGGTTTGGCTCCAAGGCTGAAGGTC | 3.73 |
| CAAAGGTGAATGACCCCTCCCCTCCCCCTT | 6.02 |
| ATAATCTTTGAAATCTGCAAATAGACATGA | 0.693 |
| AGCTGCAAGTGCCAACAAACTCAATCCTGG | -1.32 |
| GCGCCCTTTGTTCTCCGGGTTCTGCGCAGG | 0.568 |
| CAAAGGTGCAAAGGTTAAAATGCCCTCACA | 5.59 |
| TGTACAAAGCCATCAGCACTGGTTCAAAGT | 2.4 |
| TGAGATAATGCTGGTAAAGCACTTTGCCCC | 5.35 |
| ATTTCTGTTGTTGATTTAACATTTGTGATC | 2.22 |
| CTAGGTAAGCACAGGTTTCTGTCCTGGTCA | 1.94 |
| AGTCAGTGAAGGAGCTGACTAGATTTCTGT | 0.563 |
| TTCAAGTAGAGCTTCACCTCTAAATCTATT | -1.36 |
| TTGGTCTTATTATCTTCAATGATAAGGAAT | 1.05 |
| AAAAATCCTGCCAAACCAGTTCAACAAGAA | -1.33 |
| AACTCTGGAGTTTGCCCTTCACAAATTAGA | 3.5 |
